Source: the RNAGym collection of RNA variant scans (doi:10.7554/elife.90254)
Read counts are not given, so values of variants with three or more changes are uncertain.

B1: LINE1-mini (parent)
chain: GGCAGAGCUCAACACAGCGUGGCAAAGUGGCUGUGGCUAGACUGCC

Variants of: B1
Experiment: self-cleavage, relative activity (ratio to wild type); higher = more cleavage; in vitro, sequencing; the parent is a self-cleaving ribozyme

Row | Variant | self-cleavage
1 | GGCAGAACUCAACACACCGUGGCAAAGUGGCUGUGGAUAGACUGAC [G7A G17C C37A C45A] | 0.11
2 | GGAGGAACUCAACCAAGCGUGGCAAAGUGGCUGUGGCUAGACUGCC [C3A A4G G7A A14C C15A] | 0.46
3 | GGCAGAGAUCAACACAGCGUGGAAAAUUGGCUGUGGCUAGACUGCC [C8A C23A G27U] | 0.18
4 | GGCAGAGCUCAACACAGCGUGGUGAAGCCCCUGUGGCUAGACUGCC [C23U A24G U28C G29C G30C] | 0.01
5 | AGUAGAACUGAACACAGCGUGGCAAAGUGGCUUUGGCUAGAUUGCA [G1A C3U G7A C10G G33U C42U C46A] | 0.06
6 | GACAGCGCUCAACACAGUGUGGCAAAGCGGCUGUGGCUAGACUGCC [G2A A6C C18U U28C] | 0.05
7 | GGCAGAGUUCAACAACCCGUGGCAAAGUGGCUGUGGCUAAACUGCC [C8U C15A A16C G17C G40A] | 0.14
8 | GGCAGAGCUCACCACAGCUUGGCAAAGUGGCUGUGGCUAGAGUGCC [A12C G19U C42G] | 0.02
9 | GCCAGAGCUCAACACAACAUGGCAAAGUGGCUGUUGCUAGACUGCC [G2C G17A G19A G35U] | 0.09
10 | GGCAGAGCUCAACACAGCGUGGCAAAGUGGCUGUGUGUAGCCUGCC [G36U C37G A41C] | 0.01
11 | GGGAGAGCUCAACACAGCCUGGCAAUGUGGCUGUGGCUAGACUGCC [C3G G19C A26U] | 0.08
12 | GGCAGAUUUCAACACAGUGUGCUAAAGUGGCUGUGGCUGGACUGCC [G7U C8U C18U G22C C23U A39G] | 0.01
13 | GGCAGAGCUCAACAUAGCAUGGCAAAGUGGCUGUGGGUAGACUGAC [C15U G19A C37G C45A] | 0.05
14 | GGCAGAGCUGAACACAGCGUGGCAAAGUGGCUGUGGCUCGACUUCC [C10G A39C G44U] | 0.01
15 | GGCACAGCUCAACGAAGCGUGGGAAAGUGGCUGUGGCUAGACUGCC [G5C A14G C15A C23G] | 0.03
16 | GGGAUAGCUCAACACAGCGUGGCAAAGAGGCUGUGGCUAAACUGCC [C3G G5U U28A G40A] | 0.05
17 | GGCCGAGCUCAACUCAGCGUGGCUAAGUGGCUGUGGCUAGACUGCC [A4C A14U A24U] | 0.05
18 | UGCAGAGCUCAAUCCAGCGUGGCAAAGUGGCUGUGUCUAGAGUGCC [G1U C13U A14C G36U C42G] | 0.06
19 | GGCAGAGCUCAACACAGCGUGGCAACUUGCCUGUGGCUAGACUGCC [A26C G27U G30C] | 0.41

Row | Variant | self-cleavage
20 | GGCAGAGCUCUACACAGCCUUGCAAAGUGCCUGUGUCUAGACUGCC [A11U G19C G21U G30C G36U] | 0.01
21 | GGCAGAGCUCAACACAGCAUGGCAUAGUAGCUGUGGCUAGACUGCC [G19A A25U G29A] | 1.58
22 | GGCAGGGCAAAACCCAACGUGGCAAAGUGGCUGUGGCUAUACUGCC [A6G U9A C10A A14C G17A G40U] | 0.01
23 | GGCAGAGCUCUCCCAAGCGUGGCAAAGUGUCUGUGGCUAGACUGCC [A11U A12C A14C C15A G30U] | 0.02
24 | GGCAGGGAUCAACACAGUGUUGCAAAGUGGCUGUGGCUAGACUGCC [A6G C8A C18U G21U] | 0.18
25 | GGCAGAGCUCAACACAACGUGACAAAGUGGCUGUGGCUCUACUGCU [G17A G22A A39C G40U C46U] | 0.02
26 | GGCAGAUCUCAACACAGCGUAGCAAAGUGGCUUUGACUAGACUGCC [G7U G21A G33U G36A] | 0.63
27 | AGGAGAGCUCAACACAGCGUACUAAAGUGGCUGUGGCUAGACGUCC [G1A C3G G21A G22C C23U U43G G44U] | 0.04
28 | GGCAGAGCUCAACACAGCGAGGCACAUUGGCUGUGGCUAGACUGCC [U20A A25C G27U] | 0.53
29 | GGCAGUGCUCAACACAGCGUGGCCAAGUGGCUGUGGCUAGAGUACC [A6U A24C C42G G44A] | 0.01
30 | GGCAGAGCUCAAAACAGCGUGGCAAACUGGUUGUGGCUUCACUGCC [C13A G27C C31U A39U G40C] | 0.04
31 | GGCAGUGCUCAACACAGCGUUCCAAAGUGGUUGUGGCUAGACUGCC [A6U G21U G22C C31U] | 0.62
32 | GGCCGGGCUCAACACAGCGUGGCAAAGUGGCUGUGGCUAGACUCCC [A4C A6G G44C] | 0.08
33 | GGCAGAGAAGAACCCAGGGUGGCAAAGUGGCUGUGGCUAGACUGCC [C8A U9A C10G A14C C18G] | 0.01
34 | GCUAGAGCUCAAGACCACGUGGCAAAGUGGCAGUGGCUAGACUGCA [G2C C3U C13G A16C G17A U32A C46A] | 0.02
35 | GGCAGAGCUCAACACAGCGUGGCAAAAUCGCUGUGGCUAUACUGCC [G27A G29C G40U] | 0.03
36 | GGCAGAGCUCAACACAGCGUGGAAAAGUGGCUGUGGCUACAGUCCC [C23A G40C C42G G44C] | 0.03
37 | GGCAGAGCUCAACACAGCGUGGCAAAGUGGCAGUGGCUAGUCUUGC [U32A A41U G44U C45G] | 0.63
38 | CGCAGAGCGCAACACAGCGUGGCAUAGUGGCUGUGGCUAGACUGCA [G1C U9G A25U C46A] | 0

Row | Variant | self-cleavage
39 | GGCAGAGCUCACCCCAGUCUGGCAAAGUGGCUGUGGCUAGACUGCC [A12C A14C C18U G19C] | 0.01
40 | GGCAGAGCUCAACACAGCUUGGCAAAUUGGCUGUGGCCAGACUGCC [G19U G27U U38C] | 0.15
41 | GGCAGAGCUCAACACGGCGUGGAACAGUGGCUGUGGCUAGACCGCC [A16G C23A A25C U43C] | 0.01
42 | GGCAGAGCUCAAAACAGCGUGGCAACGUGGCUGCGUCUAGAAUGCC [C13A A26C U34C G36U C42A] | 0.12
43 | GGAAGAGCUCAAAACAGCGUGGCAAAGUGGCUGUUGCUAGACUGCC [C3A C13A G35U] | 1.26
44 | GGCAGAGCUCAACGCAUAGUGGCAAAGUGGCUGAGGCUAGACUGCC [A14G G17U C18A U34A] | 0.02
45 | GGCAGAGCUCAACCCAGCGUGGCAAAGUGGCUGUGGCAAGACUGAC [A14C U38A C45A] | 0.02
46 | GGCAGGGCUUAACACGGCGUGGCAUAGUGGCUGUGGGUAGACUGGC [A6G C10U A16G A25U C37G C45G] | 0.02
47 | GGCAGAGCACAACACAGCGUGUCAAAGUGGCUGUGGCUCGACUGCC [U9A G22U A39C] | 0.01
48 | GGCAGAGCUCAACACAGCGUAGCAAAGUUCGUGUUGCUAGACUGCC [G21A G29U G30C C31G G35U] | 0.02
49 | GGCAGAUCUCAUCAUAGCGUGGCAAAGUAGCUGUGGCUAGACUGCC [G7U A12U C15U G29A] | 0.02
50 | GUCAGAGCUGAACAGAUCGUGGCAAAGUGGCUGUGGCGAGACUGCC [G2U C10G C15G G17U U38G] | 0.02
51 | GGCAGAGCUCAACACAGCGUGGCAAAGUGGCUGUGGCGCGACUGGC [U38G A39C C45G] | 0.06
52 | GGCAGAGAUCAACACAGCGUGGUAUAGUGGCUGUGGCUAGACUGCC [C8A C23U A25U] | 0.12
53 | GGCGGAGCUCAAUACAGCGUGGCAAAGUGGCUGUGGCUAAACUGCA [A4G C13U G40A C46A] | 0.21
54 | GGCAUAGCUAAACACAGAGUGGCAAAGUGGGUGUGGCUAGACUGCC [G5U C10A C18A C31G] | 0.01
55 | GGGAGAGCUCAACACAGCGUGACAAAGUGGCUGUGGCUAAACUGCC [C3G G22A G40A] | 0.3
56 | GGCAGAGCUCAACACAGCGUGGCACAGUGGCUGUGGCUACAUUGCC [A25C G40C C42U] | 0.01
